Data as given in PubChem BioAssay AID686971 (National Center for Advancing Translational Sciences (NCATS), 2013).
Hit rate of the full screen: of about 360,000 compounds, about 7,500 (2.1%) were called active. Inconclusive results, whose numbers are uncertain, are shown with a selection of clear calls. Calls follow the shape of the dose curve; as a rule, active = well fitted cell-killing curve with a large enough effect; inconclusive = small, poorly fitted or top-dose-only effect, or effect the other way, or another doubt; inactive = no such curve, though single readings can be large or run the other way. Potencies of inconclusive entries are left out as doubtful fits.

Assay: qHTS for induction of synthetic lethality in tumor cells producing 2HG: qHTS for the HT-1080-IDH1KD cell line;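 as to activity, negative = toxicity: 0% = DMSO wells and -100% = cell-free medium wells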
Details: HT-1080 IDH1 knockdown viability, ATP luminescence, 48 h; activity, negative = toxicity: at 46.1 µM (top of the series) unless noted
Summary of the method: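 Cytotoxicity counter-line: IDH1KD HT-1080, 48 h, CellTiter-Glo. Curves classed by r2, magnitude and activity.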
Potency is read from the fitted curve at half-maximal effect; tags tell the direction and shape of the fitted curve.

SMILES | Potency | activity, negative = toxicity
CC1(C)N=C(c2ccc(Cl)cc2)C(=O)N1 | inactive | 
CN1CCN(S(=O)(=O)c2ccc(N3CCN(c4ccccc4Cl)CC3)nc2)CC1 | inactive | 
COc1cc(C(=O)N2CCN(c3cccc(C)c3C)CC2)cc(OC)c1OC | active: 0.82 µM | 
Cc1ccc(N2CCN(C(=O)C3CCN(S(=O)(=O)c4cccc5nsnc45)CC3)CC2C)cc1 (stereo unspecified) | inactive | 
CCOc1cc(CNc2ccc(S(N)(=O)=O)cc2)ccc1OCC(=O)NC(C)(C)C | inactive | 
CCOC(=O)N/N=C/C=C/c1ccccc1 | inactive | 
O=C1N=C(N2CCOCC2)S/C1=C/c1cc2c(cc1[N+](=O)[O-])OCO2 | inconclusive [cytotoxic, single point] | 
CCc1ccc(NC(=O)CSc2nnc(-c3ccccn3)n2C)cc1 | inactive | 
COc1ccc(Nc2nc(N)nc(CCl)n2)cc1 | active: 23.1 µM | 
CN(C)c1nc(N)nc(CSc2nnnn2-c2cccc3ccccc23)n1 | inconclusive [cytotoxic, full curve] | 
Cc1cc(-c2csc3nc[nH]c(=S)c23)cc(C)c1C | active: 14.6 µM | 
N#Cc1c(N2CCN(C(=O)c3ccccc3)CC2)nc(-c2ccccc2)c2c1CCCC2 | inconclusive [cytotoxic, partial curve] | 
CCNC(=O)C1CCCN(C(=O)c2cccs2)CC1 (stereo unspecified) | inactive | 
Cn1c(C(=O)NCCCN2CCOCC2)cc2c(=O)n(C)c3ccccc3c21 | inactive | 
Cc1ccc(NC(=O)C2CC(=O)N(c3ccc4c(c3)OCCO4)C2)cc1S(=O)(=O)N1CCCCCC1 (stereo unspecified) |  | inconclusive: -30.3% [cytotoxic]
CC1CN(C(=O)c2cccc(S(=O)(=O)N3CCN(c4ccc(F)cc4)CC3)c2)CC(C)O1 (stereo unspecified) | inactive | 
COc1cc(Br)c(C2C(C#N)=C(N)Oc3n[nH]c(-c4cccnc4)c32)cc1OC (stereo unspecified) | inconclusive [cytotoxic, single point] | 
Cc1ccc(C(=O)Nc2ncc(C)s2)o1 | inconclusive [cytotoxic, single point] | 
O=C(NCc1ccco1)C1c2ccccc2Oc2ccccc21 | inconclusive [cytotoxic, single point] | 
CCOC(=O)c1[nH]c(C)c(C(=O)/C=C/c2ccc(C(=O)O)cc2)c1C | inconclusive [cytotoxic, single point] | 
CCc1ccc2c(c1)NC(=O)C2(C)Cc1ccc(F)cc1 (stereo unspecified) | inconclusive [cytotoxic, single point] | 
OCCN1CCN(Cc2cccc(Oc3ccc(Cl)cc3)c2)CC1 | inconclusive [cytotoxic, single point] | 
Cc1ccc(N2CC(C(=O)Nc3ccc4c(c3)OCCO4)CC2=O)cc1 (stereo unspecified) | inconclusive [cytotoxic, single point] | 
Cc1ccc(-c2n[nH]c(=S)n2-c2ccccc2)cc1 | inactive | 
CCOC(=O)/C=c1\s/c(=C\c2ccccc2C)c(=O)n1CC(=O)NCc1ccc2c(c1)OCO2 | inconclusive [cytotoxic, single point] | 

SMILES | Potency | activity, negative = toxicity
COc1cc2c(cc1OC)C(c1cc(Br)ccc1F)N(C(=O)CCl)CC2 (stereo unspecified) | active: 20.6 µM | 
CCCn1c(N)c(C(=O)CN(C)CC(=O)Nc2ccc(C)cc2)c(=O)[nH]c1=O | inactive | 
CCOC(=O)c1c(NC(=O)c2cc3n(n2)C(C(F)(F)F)CC(c2cccs2)N3)sc(C)c1C (stereo unspecified) | inactive | 
CC1(C(=O)NS(=O)(=O)c2ccccc2Cl)CCN1C(=O)C1CCCCC1 (stereo unspecified) | inactive | 
O=C(c1cn(-c2ccccc2)nc1-c1cccs1)N1CCN(c2ccccc2)CC1 | active: 7.08 µM | 
CCN(CC)CCNCc1ccc(-c2ccc(Cl)cc2)o1 | inconclusive [cytotoxic, single point] | 
Oc1ccc(-c2cn3c(n2)SCC3)cc1O | inactive | 
CCc1cc(-c2nnn(CCC3COCCO3)c2CC)ccc1-c1cn(CCc2c[nH]c3ccccc23)nn1 (stereo unspecified) | inconclusive [cytotoxic, single point] | 
CCOc1ccc(C=NNC(=O)c2cccc3ccccc23)cc1OCC | inactive | 
Cc1cc(C)nc(NS(=O)(=O)c2ccc(NC(=O)c3ccccc3Br)cc2)n1 | inactive | 
CCCCC(=O)NC(Nc1sc2c(c1C(N)=O)CCCC2)(C(=O)OCC)C(F)(F)F (stereo unspecified) | inactive | 
CSc1cccc(NC(=O)/C=C/c2ccccc2)c1 | inconclusive [cytotoxic, single point] | 
COc1ccc(C)cc1-n1c(SCC(=O)Nc2cccc(C(=O)O)c2)nc2ccccc2c1=O | inactive | 
S=C(Nc1ccc(Nc2ccccc2)cc1)NC1CCCCCC1 | inconclusive [cytotoxic, single point] | 
CCOC(=O)c1c(C)[nH]c(C(=O)N/N=C/c2ccc(Br)cc2)c1C | active: 0.092 µM | 
COc1cc2c(C(=O)N3CCN(c4cccc(Cl)c4)CC3)cn(CC(C)C)c(=O)c2cc1OC | inconclusive [cytotoxic, single point] | 
CN(C)C1CN(Cc2cn(Cc3ccc(F)cc3)nn2)S(=O)(=O)C1 (stereo unspecified) | inactive | 
CCc1ccc(N(C(=O)C(F)(F)F)C(C(=O)NC2CCCCC2)c2ccncc2)cc1 (stereo unspecified) | inconclusive [rising, partial curve] | 
COC(=O)[C@@]12C[C@@H](CC(=O)NCc3ccccc3)C(=O)N(Cc3cccc4ccccc34)C1=CCC(C)(C)C2 | inconclusive [cytotoxic, partial curve, poor fit] | 
COc1ccc(C(C)C)cc1S(=O)(=O)n1cnc(C)c1 | inconclusive [cytotoxic, single point] | 
C=CS(=O)(=O)c1c2cc(OC)ccc2nc2ccc(OC)cc12 | inconclusive [cytotoxic, single point] | 
O=C(c1nn2c(C(F)(F)F)cc(-c3cccs3)nc2c1Br)N1CCCc2ccccc21 |  | inconclusive: -33.9% [cytotoxic]
O=C1C=C(NCc2ccccc2)c2ccccc2C1=O | active: 4.61 µM | 
COc1ccc(NS(=O)(=O)c2ccc3c(c2)[C@H]2C=CC[C@H]2[C@@H](c2ccc(C(=O)O)cc2)N3)cc1 | inactive | 
COc1cc(/C=C/C(=O)O)cc(Br)c1O | inactive | 

SMILES | Potency | activity, negative = toxicity
Cc1ccccc1C(=O)N1CCN(c2ccc(NC(=O)CSc3ccc(Cl)cc3)cc2)CC1 | inconclusive [cytotoxic, partial curve] | 
O=[N+]([O-])c1cccc(/C=C/c2ccc3cccc(O)c3n2)c1 | inconclusive [cytotoxic, partial curve] | 
Cc1ccc(N(C)C(=O)c2ccc3c(Cl)c4c(nc3c2)CCC4)cc1C | inconclusive [cytotoxic, single point] | 
C=CCc1cccc(CNc2nc3ccccc3n2C(C)C)c1O | active: 11.2 µM | 
O=C(OCn1ncc(Br)c(Br)c1=O)c1ccc(F)cc1 | active: 11.6 µM | 
C[n+]1c2n(c3ccccc31)N=C(c1ccccc1)CS2 | inconclusive [cytotoxic, full curve] | inconclusive: -32.7% [cytotoxic]
CC(=O)c1cccc(-c2ccnc3c2CC(C(=O)Nc2ccc(F)c(Cl)c2)O3)c1 (stereo unspecified) | inconclusive [cytotoxic, single point] | 
Oc1[nH]c(=S)sc1/C=C1\C(c2ccccc2)=Nc2ccccc21 | inconclusive [cytotoxic, partial curve] | 
O=[N+]([O-])c1cccc(N/N=C/c2cccc(O)c2O)c1 | inconclusive [cytotoxic, full curve] | 
CC(=O)Nc1ccc(-c2nc(C)c(C(C)=O)n2O)cc1 | inconclusive [rising, partial curve, poor fit] | 
Nc1nc(SCc2ccccn2)c2ncn(C3OC(CO)C(O)C3O)c2n1 (stereo unspecified) | inactive | 
Cc1nnc(-c2ccc(Oc3ccc(Br)cc3)c([N+](=O)[O-])c2)o1 | inactive | 
CC1(C)Cc2ccccc2C(COc2ccccc2)=N1 | inactive | 
S=C(NCc1cccs1)Nc1cccc(Cl)c1 | inconclusive [cytotoxic, single point] | 
Cc1ccc(NC(=O)c2cc(=O)c3ccccc3o2)cc1S(=O)(=O)N1CCOCC1 | inactive | 
CC(C)CN(Cc1cc(=O)oc2cc(-c3ccccc3)c(O)cc12)CC(C)C | inconclusive [cytotoxic, single point] | 
O=C(CSc1nnc(Cn2nnc3ccccc32)o1)N(Cc1ccc(Cl)cc1)c1ccccc1 | active: 3.26 µM | 
Nc1nonc1-c1nc2ccccc2n1Cc1ccccc1 | inconclusive [cytotoxic, single point] | 
CC1=N/C(=C\c2ccc([N+](=O)[O-])cc2)C(=O)N1c1ccc(F)cc1F | inactive | 
COc1ccccc1C1N(c2ccc(Cl)cc2)C(=O)C2CCCN21 (stereo unspecified) | inconclusive [cytotoxic, partial curve] | 
CCOC(=O)[C@]12CCC=C1N(CCC1=CCCCC1)C(=O)[C@H](CC(=O)NCCCCc1ccccc1)C2 | inconclusive [cytotoxic, single point] | 
CC(C)(C)[C@@H]1C=C(C(=O)N2CCN(Cc3ccccc3)CC2)O[C@H](OCc2ccc(CO)cc2)C1 | inactive | 
COc1cc(C(O)c2nc(-c3ccccc3C)cs2)ccc1F (stereo unspecified) | inconclusive [cytotoxic, partial curve, poor fit] | 
O=C(Cc1coc2cc(O)ccc12)N1CCN(S(=O)(=O)c2ccc(Br)cc2)CC1 | inactive | 
Cc1cc(OCc2cc(C(=O)NC(C)c3c(C)nn(C)c3C)no2)cc(C)c1Cl (stereo unspecified) | inconclusive [cytotoxic, single point] | 
